Test results reported in the supplement of paper PMC4967469.

How the values were obtained:
Assay in all cases: Viability of human cancer cell lines after 72 h of drug (GDSC screen)
CEP-701 = compound: C[C@]12O[C@H](C[C@]1(O)CO)n1c3ccccc3c3c4c(c5c6ccccc6n2c5c31)CNC4=O [CEP-701]; conditions: top dose 2 µM; top dose inferred
Procedure: (§1)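 Human cancer cell lines in 384-well plates, medium with 10% serum, drug for 72 h over a 256-fold dose range (nine 2-fold or five 4-fold steps up to the top dose). Adherent lines were fixed and stained with the nucleic acid dye Syto60, suspension lines read with resazurin; signal relative to control wells, capped at 0 and 100%. One two-parameter sigmoid per drug and line, fitted in a mixed model over all curves with the slope shared within a line.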

GDC0941 = compound: CS(=O)(=O)N1CCN(Cc2cc3nc(-c4cccc5[nH]ncc45)nc(N4CCOCC4)c3s2)CC1 [GDC0941]; conditions: top dose 4 µM; screen: GDSC drug entry 1527; top dose inferred
Procedure: as §1

SB 216763 = compound: Cn1cc(C2=C(c3ccc(Cl)cc3Cl)C(=O)NC2=O)c2ccccc21 [SB 216763]; conditions: top dose 10 µM; top dose inferred
Procedure: as §1

AR-42 = compound: CC(C)[C@H](C(=O)Nc1ccc(C(=O)NO)cc1)c1ccccc1 [AR-42]; conditions: top dose 5.12 µM; top dose inferred
Procedure: as §1

Pazopanib = compound: Cc1ccc(Nc2nccc(N(C)c3ccc4c(C)n(C)nc4c3)n2)cc1S(N)(=O)=O [Pazopanib]; conditions: top dose 8 µM
Procedure: as §1

Cell Line	AUC (CEP-701)	IC50 (CEP-701)	AUC (GDC0941)	IC50 (GDC0941)	AUC (SB 216763)	IC50 (SB 216763)	AUC (AR-42)	IC50 (AR-42)	AUC (Pazopanib)	IC50 (Pazopanib)
PL4 (pancreas, adherent)	0.854	1660 nM	0.797	1960 nM	0.98	> 10000 nM	0.748	1690 nM	0.977	> 8000 nM
RCM-1 (large intestine, adherent)	0.791	1120 nM	0.923	> 4000 nM	0.97	> 10000 nM	0.594	613 nM	0.975	> 8000 nM
RERF-LC-KJ (lung adenocarcinoma, adherent)	0.782	864 nM	0.89	> 4000 nM	0.987	> 10000 nM	0.913	> 5120 nM	0.932	> 8000 nM
RERF-LC-MS (lung adenocarcinoma, adherent)	0.748	657 nM	0.75	1340 nM	0.946	> 10000 nM	0.612	657 nM	0.922	> 8000 nM
RKN (ovary, adherent)	0.724	562 nM	0.725	1130 nM	0.986	> 10000 nM	0.77	2060 nM	0.971	> 8000 nM
RMG-I (ovary, adherent)	0.912	> 2000 nM	0.606	513 nM	0.983	> 10000 nM	0.613	690 nM	0.862	> 8000 nM
RO82-W-1 (thyroid, adherent)	0.773	1010 nM	0.777	2080 nM	0.948	> 10000 nM	0.637	852 nM	0.958	> 8000 nM
RPMI-2650 (head and neck, adherent)	0.729	598 nM	0.888	> 4000 nM	0.975	> 10000 nM	0.478	278 nM	0.944	> 8000 nM
RPMI-8866 (chronic myeloid leukaemia, suspension)	0.383	61.3 nM	0.305	74.4 nM	0.95	> 10000 nM	0.342	121 nM	0.966	> 8000 nM
SAS (head and neck, adherent)	0.735	639 nM	0.752	1460 nM	0.984	> 10000 nM	0.59	580 nM	0.917	> 8000 nM
SBC-3 (small cell lung carcinoma, adherent)	0.773	710 nM	0.883	3600 nM	0.989	> 10000 nM	0.252	67.4 nM	0.69	1610 nM
SBC-5 (small cell lung carcinoma, adherent)	0.653	303 nM	0.855	2310 nM	0.993	> 10000 nM	0.528	376 nM	0.991	> 8000 nM
SCC-4 (head and neck, adherent)	0.727	633 nM	0.932	> 4000 nM	0.951	> 10000 nM	0.669	1040 nM	0.953	> 8000 nM
SCC-9 (head and neck, adherent)	0.786	1130 nM	0.491	234 nM	0.981	> 10000 nM	0.568	517 nM	0.981	> 8000 nM
SCC-25 (head and neck, adherent)	0.727	608 nM	0.712	1090 nM	0.984	> 10000 nM	0.501	323 nM	0.935	> 8000 nM
SF295 (glioma, adherent)	0.696	467 nM	0.776	1730 nM	0.969	> 10000 nM	0.583	550 nM	0.981	> 8000 nM
SJRH30 (rhabdomyosarcoma, adherent)	0.551	174 nM	0.758	1430 nM	0.985	> 10000 nM	0.526	377 nM	0.915	> 8000 nM
SK-HEP-1 (liver, adherent)	0.315	39.6 nM	0.891	> 4000 nM	0.989	> 10000 nM	0.655	835 nM	0.894	> 8000 nM
SK-MEL-3 (melanoma, adherent)	0.54	163 nM	0.858	> 4000 nM	0.983	> 10000 nM	0.598	623 nM	0.925	> 8000 nM
SK-MEL-24 (melanoma, adherent)	0.691	483 nM	0.825	3120 nM	0.983	> 10000 nM	0.674	1090 nM	0.983	> 8000 nM
SK-MEL-30 (melanoma, adherent)	0.8	1030 nM	0.901	> 4000 nM	0.986	> 10000 nM	0.572	510 nM	0.975	> 8000 nM
SK-N-SH (neuroblastoma, adherent)	0.657	339 nM	0.836	2630 nM	0.98	> 10000 nM	0.434	211 nM	0.824	4690 nM
SKG-IIIa (cervix, adherent)	0.585	232 nM	0.893	> 4000 nM	0.966	> 10000 nM	0.842	> 5120 nM	0.977	> 8000 nM
SLVL (B-cell lymphoma, suspension)	0.839	1480 nM	0.901	> 4000 nM	0.98	> 10000 nM	0.314	92.9 nM	0.948	> 8000 nM
SNU-449 (liver, adherent)	0.856	1850 nM	0.685	868 nM	0.945	> 10000 nM	0.777	2260 nM	0.905	> 8000 nM
SNU-C2B (large intestine, adherent)	0.807	1440 nM	0.838	> 4000 nM	0.976	> 10000 nM	0.539	422 nM	0.932	> 8000 nM

IC50 is the fitted dose that halves viability relative to control wells, and lower means more sensitive; a fit beyond the top or the lowest dose is shown as a bound at that dose. AUC sums up the same curve from the lowest dose to the 256-fold higher top dose: 1 means no effect, lower means more sensitive. For some assays here: Where the top dose is marked as inferred, it is not printed in the source and was worked back from the curve model. For some assays here: An entry number marks a drug with two screens in the source, which often give different values.
